Consider 42 sequences from paper PMC7819943, “Rice protein-binding microarrays: a tool to detect cis-acting elements near promoter regions in rice”.

The list shows a part of the results.

The target of this assay is T1, OsWOX13 (Oryza sativa, UniProt Q5QMM3 1-267).
T1 sequence: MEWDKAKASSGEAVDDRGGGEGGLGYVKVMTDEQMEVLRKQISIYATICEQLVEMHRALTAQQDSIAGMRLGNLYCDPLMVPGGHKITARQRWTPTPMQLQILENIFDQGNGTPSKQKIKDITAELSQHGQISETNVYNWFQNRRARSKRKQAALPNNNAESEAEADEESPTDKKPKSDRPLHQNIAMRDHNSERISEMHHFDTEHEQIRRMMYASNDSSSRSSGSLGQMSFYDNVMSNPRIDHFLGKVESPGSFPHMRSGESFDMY
The assay is described as follows: protein-binding microarray (RPBM); PBS, 2% BSA, 51.3 ng/ul salmon testes DNA, 50 uM zinc acetate, 200 nM TF, 25 C, 1 h; high values mean tight binding. As to conditions: protein: recombinant; tags: N-terminal polyhistidine and DsRed monomer fusion (pET32a); label: CyDye5-dUTP incorporated in the synthesized complementary strand; 3' TTTTT single-stranded linker to array surface; dsDNA, one strand shown. The method, boiled down: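 The binding signal for each feature is its fluorescence intensity in arbitrary units. An Axon 4000B scanner was used to read a custom Agilent array that had been made double-stranded with Cy5-dUTP primer extension, blocked with 2% BSA, incubated at 25 °C for 1 h with 200 nM protein in PBS, 2% BSA, salmon testes DNA and 50 µM zinc acetate, and washed. The protein was an N-terminal polyhistidine–DsRed transcription factor fusion from E. coli BL21-CodonPlus, purified on Ni–NTA.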
For the sequence “TGTTTTCCTAAGTGATTGGTGGGAAACCTCGTAGGATAAGCGGAGTCACCTAGTGCAG”, the binding signal was 9180 fluorescence intensity (a.u.).

Consider “GAGTAATTACTAATTAGCTGGTACACTCAATCCAGTACGGCGGAGTCACCTAGTGCAG”, for which the binding signal was 59000 fluorescence intensity (a.u.).

Take “TGACAATTGACATAGCCTGACTTTTGGAAGTCTGCAGCTGCGGAGTCACCTAGTGCAG”: the binding signal is 14100 fluorescence intensity (a.u.).

Take “CCTAATTAATCGATCAACTGCTACACTAGCTAAGACGACGCGGAGTCACCTAGTGCAG”: the binding signal is 23400 fluorescence intensity (a.u.).

As to “ATTAAATTATACTTTTACCATTTTATGTAATCTTGAGCTTCGGAGTCACCTAGTGCAG”, the binding signal is 26000 fluorescence intensity (a.u.).

For “TAAATTGATGACGTGGCGCAATGAGGTGACGAAACACTTTCGGAGTCACCTAGTGCAG”, the binding signal was 31500 fluorescence intensity (a.u.).

On to “TTTGATTTTGGGAGAACTAAAATCAGTTCTCCGAAGATCGCGGAGTCACCTAGTGCAG”, for which the binding signal is 5400 fluorescence intensity (a.u.).

On to “AAATGATGGAATATTATATGGTGCAAAGAATTATACCATCCGGAGTCACCTAGTGCAG”, for which the binding signal is 3670 fluorescence intensity (a.u.).

Turning to “AGATCATTAAAGTGGCTAATTTCTCTAAATAGCAGGCACTCGGAGTCACCTAGTGCAG”, the binding signal was 4540 fluorescence intensity (a.u.).

In the case of “TTAATTTGCATTACTAAATATTATCGTAGCGTTAGCACGGCGGAGTCACCTAGTGCAG”, the binding signal was 12500 fluorescence intensity (a.u.).

As to “CTGTCGTTGTTCTGCTAATTAATCTCGTAGCATTATTTACCGGAGTCACCTAGTGCAG”, the binding signal was 5220 fluorescence intensity (a.u.).

For the sequence “CGAGGTGATTTGCTCGGAGCTTTCGCTTTCTTACTAGTTTCGGAGTCACCTAGTGCAG”, the binding signal is 5410 fluorescence intensity (a.u.).

Take “AAGATTGACCGAGTTTTGTTTTAAACATTAAATATTTATGCGGAGTCACCTAGTGCAG”: the binding signal was 15900 fluorescence intensity (a.u.).

As to “ATCCTCCTTGTAATATGAATAGGAATGTAAATGTGGACGGCGGAGTCACCTAGTGCAG”, the binding signal was 5660 fluorescence intensity (a.u.).

Regarding “CCATCGGCAAATTTAACGGATGAAATTAGTGCCACTTGTTCGGAGTCACCTAGTGCAG”, the binding signal is 3180 fluorescence intensity (a.u.).

Turning to “GCATTAATTATTATATATTCCACCGTTTAGCAGTTCAGAACGGAGTCACCTAGTGCAG”, the binding signal is 18500 fluorescence intensity (a.u.).

As for “CAAACAGACATGAAAATTATATAACAAATGACAATATAAACGGAGTCACCTAGTGCAG”, the binding signal is 4460 fluorescence intensity (a.u.).

With “TAAGATGTTAATTGCGTCCACATTAATTAAGAACCCTATACGGAGTCACCTAGTGCAG”, the binding signal is 17900 fluorescence intensity (a.u.).

“CTCTAAATTAGGGTTTAAACATCCGATGTGACAGCACCTTCGGAGTCACCTAGTGCAG”: the binding signal was 23100 fluorescence intensity (a.u.).

For the sequence “GGAAAACTGGAAATTACGACATATCGATCGCCATGTATCTCGGAGTCACCTAGTGCAG”, the binding signal was 13600 fluorescence intensity (a.u.).

With “GCAAACGGTTTAAATTGCCATCCCTACTTGAGAGAACTTGCGGAGTCACCTAGTGCAG”, the binding signal was 3380 fluorescence intensity (a.u.).

With “GTACAGTAAATTAAGTTATCTTTGCAGAAAGAAATGGGTACGGAGTCACCTAGTGCAG”, the binding signal was 5820 fluorescence intensity (a.u.).

In the case of “TCTCATAAACTAATTATCCAATCTATGATCCGAACACATCCGGAGTCACCTAGTGCAG”, the binding signal is 12300 fluorescence intensity (a.u.).

For “TATATATATATATATATATAGTAGATTTAATATACCATGCCGGAGTCACCTAGTGCAG”, the binding signal was 8600 fluorescence intensity (a.u.).

For “TGTAAATTGCTGCAAAATTTTCACAGAAATTTCTGTACATCGGAGTCACCTAGTGCAG”, the binding signal was 22200 fluorescence intensity (a.u.).

As for “AGCAAATTAATCCAAAACCTGTGCTCTAGCTAGCTGGAGCCGGAGTCACCTAGTGCAG”, the binding signal was 5640 fluorescence intensity (a.u.).

Take “AATATAAATTAATTTATAGTTAAAACTTTTATATGACTTACGGAGTCACCTAGTGCAG”: the binding signal was 35200 fluorescence intensity (a.u.).

Take “ATTTTGAAGTTCCTGTAAGTTGGACATATCTACTGGTTCCCGGAGTCACCTAGTGCAG”: the binding signal is 65500 fluorescence intensity (a.u.).

On to “CATGAAAATTTTGGTGGGATAGGGATGGGGAATTGAGAAACGGAGTCACCTAGTGCAG”, for which the binding signal is 5260 fluorescence intensity (a.u.).

Regarding “CTGATTTCGTACATTAATATGGTATTCCACGGTGGTACCTCGGAGTCACCTAGTGCAG”, the binding signal is 3350 fluorescence intensity (a.u.).

Consider “CAAATAGAGTAATTATCCTTCTGTGCCAGGTATTCGAAAACGGAGTCACCTAGTGCAG”, for which the binding signal was 8990 fluorescence intensity (a.u.).

With “GTCTGATTTAACTAAGGTCCTATTTAGTTCCTACAAAATGCGGAGTCACCTAGTGCAG”, the binding signal was 25800 fluorescence intensity (a.u.).

Turning to “GATATAATATAGATAATTTGTTGAAGTAAGAAGAGATACGCGGAGTCACCTAGTGCAG”, the binding signal is 7120 fluorescence intensity (a.u.).

For “ACAGATTAAAACTGACAACCGAAGATCATATGCATCTAATCGGAGTCACCTAGTGCAG”, the binding signal is 5340 fluorescence intensity (a.u.).

On to “AAAACCACATCGGATTGATTTAGAGGGTACAGTTTGTCCGCGGAGTCACCTAGTGCAG”, for which the binding signal is 10500 fluorescence intensity (a.u.).

As to “TTATATTAATTTATTTTCAGAATTATTTAAGTAATACTTGCGGAGTCACCTAGTGCAG”, the binding signal is 26100 fluorescence intensity (a.u.).

For “GGTGACAGTGCTGCTGTTAAATTGGATGTGGAGCCTTCATCGGAGTCACCTAGTGCAG”, the binding signal was 3890 fluorescence intensity (a.u.).

Turning to “GTTAACTGCAAATTACACGCAACGAAAACCCTCCATCGACCGGAGTCACCTAGTGCAG”, the binding signal was 35100 fluorescence intensity (a.u.).

Regarding “TCGTTAATTGTACTTCTTGTTTCTGAAACTTTCCGGAGACCGGAGTCACCTAGTGCAG”, the binding signal is 26300 fluorescence intensity (a.u.).

For the sequence “TCTTTATTTCTTGTTGATTATAGGATCAAATCAACTGGCTCGGAGTCACCTAGTGCAG”, the binding signal was 8300 fluorescence intensity (a.u.).

Take “ACATCTAATTTGAAATGGATGTAGTATATTCTAATTGCATCGGAGTCACCTAGTGCAG”: the binding signal is 17000 fluorescence intensity (a.u.).

As to “AGGTTAGATTGGATTGATCCAGCAGTTTTAGTAGTCTGGACGGAGTCACCTAGTGCAG”, the binding signal was 29500 fluorescence intensity (a.u.).
